Measurements reported in PubChem BioAssay AID686978 (National Center for Advancing Translational Sciences (NCATS), 2013).
Screen size: about 420,000 compounds; about 64,000 (15%) were called active. Inconclusive means that the source gave no clear call. Such entries were picked first, then a sample of the others. The call rests on the fitted dose curve; in most records, active means well fitted inhibition curve with a large enough effect; inconclusive means small, poorly fitted or top-dose-only effect; inactive means flat fitted curve, though single readings scatter. Potencies of inconclusive entries are left out as doubtful fits.
On the % scale 0 is the no-effect control and ±100 the full control effect; potency means the concentration at half of the fitted maximal effect; tags describe the fitted curve by direction and shape.

Experiment: qHTS for Inhibitors of human tyrosyl-DNA phosphodiesterase 1 (TDP1): qHTS in cells in absence of CPT; further: nearly all actives have a fitted effect of over 55% in size
Conditions: DT40 Tdp1-/- hTDP1 cells, no CPT, ATP luminescence, 48 h; activity change, negative = growth inhibition: at 46.2 µM (top of the series)
Method in brief: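 No-CPT arm: Tdp1-/-;hTDP1 DT40 cells (400/well) plus compounds, incubated ≥48 hr at 37 °C. Readout CellTiter-Glo luminescence.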
With `CCCC(C)(C)C(=O)N1CCC1(C)C(=O)Nc1ccc2c(c1)OCCO2` (configuration not stated) the Potency was inconclusive [inhibitor, single point]. In the case of `Nc1nc(N)c2cc(Sc3cccc(C(F)(F)F)c3)ccc2n1`, the Potency is reported as active: 1.3 µM. With `COc1cc(C(=O)COC(=O)c2cc([N+](=O)[O-])ccc2N2CCOCC2)ccc1OC(F)F` the Potency was inconclusive [inhibitor, single point]. With `COc1ccc(CCNC(=O)C2c3ccccc3C(=O)N2Cc2ccccc2)cc1OC` (configuration not stated) the Potency was inconclusive [inhibitor, single point]. In the case of `S=C(Nc1ccc(-c2nc3ccccc3[nH]2)cc1)Nc1cccnc1`, the Potency is reported as inconclusive [inhibitor, single point]. For `COc1ccc(-c2cc3nc(-c4ccccc4)cc(N4CCN(C(=O)c5ccsc5)CC4)n3n2)cc1`, the Potency was active: 5.17 µM. In the case of `COc1cccc(OC)c1C(=O)NC(=S)NNC(=O)[C@H]1C[C@@H]1c1ccccc1`, the “activity change, negative = growth inhibition” value is reported as inactive: -3.32%. With `Cc1ccc(S(=O)(=O)N2CCCC2CNC(=O)C(=O)NCc2ccc3c(c2)OCO3)cc1` (configuration not stated) the Potency was inconclusive [inhibitor, single point]. For `O=C(CN1C(=O)C2(SCC(=O)N2c2ccc(F)c(F)c2)c2ccccc21)Nc1cccc(Cl)c1` (configuration not stated), the Potency was inconclusive [inhibitor, single point]. With `Cc1ccccc1OCC(=O)Nc1ccc2nc(SCC(=O)N3CCOCC3)sc2c1` the Potency was active: 5.8 µM. With `CCn1c(COc2c(C)cccc2C)nnc1SCc1nc2ccccc2c(=O)[nH]1` the Potency was inconclusive [inhibitor, single point]. With `COC(=O)c1ccc(-c2ccc(C(c3c(C)[nH][nH]c3=O)c3c(C)[nH][nH]c3=O)o2)cc1` the Potency was inconclusive [inhibitor, single point]. With `CCN(CC)C(=O)CCCSc1nnc(Nc2ccccc2F)s1` the Potency was inconclusive [inhibitor, single point]. In the case of `CC1(C(=O)NS(=O)(=O)c2ccc(F)cc2F)CCN1C(=O)c1ccccc1CCc1ccccc1` (configuration not stated), the Potency is reported as inconclusive [inhibitor, single point]. With `Cc1ccc(N(CC(=O)NCc2ccc(F)cc2)C(=O)c2csnn2)cc1C` the “activity change, negative = growth inhibition” value was inactive: -4.22%. In the case of `Cc1ccc(S(=O)(=O)Nc2ccc(NC(=O)c3cccs3)cc2)cc1`, the Potency is reported as inconclusive [inhibitor, single point]. For `CCC(=O)Nc1ccc(NC(=O)CSc2nnnn2C(C)C)cc1`, the “activity change, negative = growth inhibition” value was inactive: 2.72%. In the case of `Cc1cnc2ccc(F)cc2c1`, the Potency is reported as inconclusive [inhibitor, single point]. In the case of `COc1ccc2c(C)c(CCC(=O)NCc3ccccc3Cl)c(=O)oc2c1C`, the Potency is reported as inconclusive [inhibitor, single point]. In the case of `Nc1nc2ccc(C(=O)NCCOC(=O)C3CCCCC3)cc2s1`, the “activity change, negative = growth inhibition” value is reported as inactive: -10.3%. In the case of `COc1cc(OC)cc(-c2c(C#Cc3ccsc3)c3cc(-c4cc(F)cc(F)c4)ccc3n2C)c1`, the Potency is reported as inconclusive [inhibitor, partial curve]. With `Cc1ccc2[nH]c(=O)c(CN(CCc3ccccc3)C(c3nnnn3Cc3ccco3)C(C)C)cc2c1` (configuration not stated) the Potency was active: 23.1 µM. For `Cc1ccccc1Cn1c2ccccc2c2cnn(CC(=O)NCCCN3CCN(C)CC3)c(=O)c21`, the Potency was inconclusive [inhibitor, single point]. In the case of `COc1cc(OC)c(/C=N/NC(=O)c2ccc([N+](=O)[O-])cc2)cc1Br`, the “activity change, negative = growth inhibition” value is reported as inactive: -16.1%. In the case of `Cc1ccccc1NC(=O)c1ccccc1OCC(=O)Nc1ccc(Br)cc1`, the Potency is reported as active: 14.1 µM. With `COc1ccc(CN2CCN(CCc3ccccc3)C(CCO)C2)cc1Cn1cncn1` (configuration not stated) the “activity change, negative = growth inhibition” value was inactive: -13.6%. With `C[C@@H]1CN([C@H](C)CO)C(=O)CCCn2nncc2CO[C@@H]1CN(C)S(=O)(=O)c1cccs1` the “activity change, negative = growth inhibition” value was inactive: -8.43%. For `Cc1ccc(C(=O)N(Cc2cc3ccc(F)cc3nc2N2CCC(O)CC2)CC2CCCO2)cc1` (configuration not stated), the “activity change, negative = growth inhibition” value was inactive: -5.44%. For `Cc1ccc(C(C(=O)NC2CCCCC2)N2CCCC2)cc1` (configuration not stated), the Potency was inconclusive [inhibitor, single point]. With `Cc1ccc(NC(=O)CC(=O)c2ccccc2)cc1C` the Potency was inconclusive [inhibitor, single point]. In the case of `Cc1ccc(C(=O)NS(=O)(=O)c2ccc(N=NN(C)C)cc2)cc1`, the “activity change, negative = growth inhibition” value is reported as inactive: -0.231%. For `COc1ccc(S(=O)(=O)N2CCOCC2)cc1NC(=O)CCOc1ccc(C(C)(C)C)cc1`, the Potency was inconclusive [inhibitor, single point]. With `COc1ccc(/C=C2\C(=O)NC(=O)c3ccccc32)cc1OC` the Potency was active: 1.46 µM. In the case of `Cc1ccc(C)c(NC(=O)C2COc3ccccc3O2)c1` (configuration not stated), the “activity change, negative = growth inhibition” value is reported as inactive: -4.06%. In the case of `CCOC(=O)/C=C/C(=O)Nc1ccccc1C(=O)NC1CCCCC1`, the Potency is reported as inconclusive [inhibitor, single point]. With `Cc1cc(C(=O)N2CCC2(C)C(=O)Nc2cccc3ccccc23)nn1C` (configuration not stated) the Potency was inconclusive [inhibitor, single point]. In the case of `CCn1c(=O)c(=O)[nH]c2cc(C(=O)NC(C)c3ccc(S(N)(=O)=O)cc3)ccc21` (configuration not stated), the “activity change, negative = growth inhibition” value is reported as inactive: 0.252%. With `COc1ncc2nc(CCc3ccccc3)c(=O)n(Cc3ccc(F)cc3)c2n1` the Potency was active: 23.1 µM. With `CCS(=O)(=O)N1CCN=C1SC(C)c1ccccc1` (configuration not stated) the “activity change, negative = growth inhibition” value was inactive: -6.1%. In the case of `CC(=O)Nc1cc(-c2ccc(N3CCN(C)CC3)cc2)cn2c(-c3ccc(F)c(Cl)c3)cnc12`, the Potency is reported as inconclusive [inhibitor, single point]. In the case of `CCC(=O)N1CCN(c2ccc(Cl)cc2NC(=S)NC(=O)c2ccco2)CC1`, the Potency is reported as inconclusive [inhibitor, single point]. In the case of `COc1ccccc1-c1nnc(SC(C(=O)c2c[nH]c3ccccc23)c2ccccc2)n1C` (configuration not stated), the Potency is reported as active: 16.4 µM. For `O=S(=O)(Nc1ccc(C(O)(C(F)(F)F)C(F)(F)F)cc1)c1ccc(Cl)c2nonc12`, the Potency was active: 14.6 µM. For `Cc1ccccc1OC(C)C(=O)Nc1ccc(S(=O)(=O)N2CCCC2)cc1` (configuration not stated), the Potency was inconclusive [inhibitor, single point]. For `COc1ccc(CNC(=O)C2CCN(C(=O)N3CCOc4ccc(Cl)cc43)CC2)cc1`, the Potency was inconclusive [inhibitor, single point]. With `Cc1ccc(-c2nnc(OCc3nc4ccccc4n3C)c3ccccc23)cc1` the “activity change, negative = growth inhibition” value was inactive: -20.2%. In the case of `Cc1ccc(C(=O)COC(=O)C2C3C=CC(C3)C2C(=O)OCC(=O)c2ccc(C)c(C)c2)cc1C` (configuration not stated), the Potency is reported as inconclusive [inhibitor, single point]. In the case of `COc1cccc(Cn2c(=O)c(-c3cccs3)nc3cnc(N(C)C)nc32)c1`, the “activity change, negative = growth inhibition” value is reported as inactive: 15.4%. With `O=C(Nc1ncccn1)C1=C(O)c2ccccc2S(=O)(=O)N1Cc1ccccc1` the “activity change, negative = growth inhibition” value was inactive: 4.74%. In the case of `Cc1cc(Nc2ccccc2O)nc(C)n1`, the “activity change, negative = growth inhibition” value is reported as inactive: 2.79%. In the case of `COc1cc(C(O)c2nc(-c3cccs3)cs2)ccc1F` (configuration not stated), the Potency is reported as inconclusive [inhibitor, single point]. In the case of `Cc1ccc(Sc2cc(C)nc(-c3ccccn3)n2)cc1`, the Potency is reported as active: 10.3 µM. With `Cc1nn(Cc2cccc(C(N)=O)c2)c(C)c1Br` the “activity change, negative = growth inhibition” value was inactive: -7.22%. In the case of `O=C(Cn1c(COc2ccccc2)nc2ccccc21)Nc1cc(Cl)cc(Cl)c1`, the Potency is reported as inconclusive [inhibitor, partial curve, poor fit]. For `CC(C)c1ccc(S(=O)(=O)N2CCN(C(=O)CCc3nc4ccccc4c(=O)[nH]3)CC2)cc1`, the Potency was inconclusive [inhibitor, single point]. For `CN(CC(=O)NCc1ccccc1F)S(=O)(=O)c1ccc(Cl)cc1`, the activity change, negative = growth inhibition was inconclusive: -31.2% [inhibitor]. For `O=C(Nc1nnc(CCN2CCCCC2)s1)c1ccccc1Cl`, the “activity change, negative = growth inhibition” value was inactive: 13.7%. For `Cc1ccc(S(=O)(=O)N2CCN(C(=O)c3sccc3C)CC2)cc1`, the “activity change, negative = growth inhibition” value was inactive: -18.1%. With `CCCOc1cccc(C(=O)NC(=S)Nc2cccc(C(F)(F)F)c2)c1` the Potency was inconclusive [inhibitor, single point]. In the case of `COc1ccccc1CN1CCC2(CCC(CNC(=O)c3ccccc3N(C)C)O2)CC1` (configuration not stated), the Potency is reported as inconclusive [inhibitor, partial curve]. With `O=S(=O)(CCNCCc1ccccc1)NCc1ccccc1` the “activity change, negative = growth inhibition” value was inactive: -2.61%. For `C=CCn1c(SCC(=O)N(C)C2CCS(=O)(=O)C2)nnc1-c1ccccc1` (configuration not stated), the “activity change, negative = growth inhibition” value was inactive: -12.7%. In the case of `Cc1cccc(C)c1-n1ncc(C(=O)NCCN2CCN(C)CC2)c1C1CCN(C(=O)OC(C)(C)C)CC1`, the Potency is reported as inconclusive [inhibitor, single point]. With `O=C1CCN(Cc2ccccc2)CCN1[C@H](COc1ccccc1)c1ccccc1` the Potency was inconclusive [inhibitor, single point]. With `COc1ccc(NC(=O)COC(=O)/C=C/c2cnc3ccccc3n2)cc1` the “activity change, negative = growth inhibition” value was inactive: 3.28%. For `C=CCn1c(=NC(=O)c2cc(-c3cccs3)nc3ccccc23)sc2cc(S(N)(=O)=O)ccc21`, the Potency was inconclusive [inhibitor, single point]. In the case of `NC(=O)c1ccc(NC(=O)c2cncn2-c2ccccc2)cc1`, the Potency is reported as inconclusive [inhibitor, single point]. With `COc1ccc(N2CCN(c3cc(C)c4cccc(C)c4n3)CC2)cc1` the “activity change, negative = growth inhibition” value was inactive: -25.4%. In the case of `Cc1ccc(S(=O)(=O)N2CCCC2)cc1C(=O)NCCN1CCOCC1`, the “activity change, negative = growth inhibition” value is reported as inactive: -14.7%. With `Cn1c(SCC(=O)N2CCN(S(=O)(=O)c3ccccc3)CC2)nc2ccccc21` the Potency was inconclusive [inhibitor, single point]. For `CCOC(=O)c1cnc2ccc(OC)cc2c1Nc1cccc(C(C)=O)c1`, the Potency was active: 20.6 µM. For `CCCC(=O)n1nc(-c2ccco2)nc1SCc1ccccc1`, the Potency was inconclusive [inhibitor, single point].
